Results from publication PMC4336329 (PLoS ONE, 2015).
Out of some 310,000 compounds screened, about 14,000 (4.5%) showed an effect of 50% or more. The effect is printed as a negative number. The list shows a part of the results.

What follows are molecules tested against human ether-à-go-go-related gene (hERG) potassium channel (human, UniProt Q12809) (assay: primary screen, population patch clamp on CHO cells stably expressing hERG).
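Also: peak tail current of the secondary pulse compared with the same well before compound.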

Chain of human ether-à-go-go-related gene (hERG) potassium channel (Q12809 whole entry, looked up): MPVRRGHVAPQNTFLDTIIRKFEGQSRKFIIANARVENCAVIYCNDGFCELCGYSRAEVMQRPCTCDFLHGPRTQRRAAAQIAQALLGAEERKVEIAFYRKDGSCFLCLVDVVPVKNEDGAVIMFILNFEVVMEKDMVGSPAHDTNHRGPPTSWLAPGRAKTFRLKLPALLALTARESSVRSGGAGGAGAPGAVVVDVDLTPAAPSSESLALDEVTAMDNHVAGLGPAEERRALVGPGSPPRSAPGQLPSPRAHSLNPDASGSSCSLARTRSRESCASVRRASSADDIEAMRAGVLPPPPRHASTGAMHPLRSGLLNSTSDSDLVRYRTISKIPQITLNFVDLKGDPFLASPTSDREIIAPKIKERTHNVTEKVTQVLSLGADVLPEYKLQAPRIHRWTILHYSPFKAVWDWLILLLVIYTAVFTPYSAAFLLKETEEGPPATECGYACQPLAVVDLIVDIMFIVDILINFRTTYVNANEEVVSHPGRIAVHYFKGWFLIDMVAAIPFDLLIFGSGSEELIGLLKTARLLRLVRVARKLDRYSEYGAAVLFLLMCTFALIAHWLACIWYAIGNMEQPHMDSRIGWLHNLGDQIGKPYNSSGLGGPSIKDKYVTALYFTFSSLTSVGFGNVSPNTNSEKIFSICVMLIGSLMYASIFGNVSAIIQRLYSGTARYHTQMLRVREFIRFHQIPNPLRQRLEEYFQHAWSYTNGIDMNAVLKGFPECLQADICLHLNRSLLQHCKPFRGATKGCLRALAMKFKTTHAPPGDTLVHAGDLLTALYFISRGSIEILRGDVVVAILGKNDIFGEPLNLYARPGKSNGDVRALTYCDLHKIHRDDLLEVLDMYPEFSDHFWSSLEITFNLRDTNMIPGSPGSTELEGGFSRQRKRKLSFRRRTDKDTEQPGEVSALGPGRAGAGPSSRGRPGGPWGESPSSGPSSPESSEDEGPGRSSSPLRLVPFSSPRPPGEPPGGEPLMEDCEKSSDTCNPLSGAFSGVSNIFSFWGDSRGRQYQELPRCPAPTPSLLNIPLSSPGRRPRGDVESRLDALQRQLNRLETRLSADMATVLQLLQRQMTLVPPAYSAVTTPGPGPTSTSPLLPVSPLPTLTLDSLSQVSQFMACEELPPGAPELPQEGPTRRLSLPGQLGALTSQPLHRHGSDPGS

Compound | hERG current change (%, negative = inhibition) at 10uM
COc1ccc(CSc2nnc(C)s2)cc1F | 5.4%
Br.Nc1ncc([N+](=O)[O-])cc1Br | -2.75%
FC(F)(F)c1cccc(-c2ccc(-c3csnn3)o2)c1 | 7.11%
O=C1c2ccccc2C(=O)N1CCCCN(C(=O)c1ccco1)c1ccc(Cl)cc1 | -55.7%
O=C(Cn1c(NCCO)nc2ccccc21)NCCc1ccccc1 | 13.4%
O=c1[nH]c(=O)n(CCc2ccc(F)cc2)c(O)c1C=NCCCN1CCOCC1 | -17.7%
CCC(C)c1ccc(NC(=O)c2cccs2)cc1 (stereo not shown) | -3.55%
N#Cc1ccccc1NC(=O)CN1CC=C(c2ccccc2)CC1 | -2.67%
O=C(Nc1nnc(S(=O)(=O)N2CCN(c3ccc(F)cc3)CC2)s1)c1ccccc1 | -3.69%
CCNC(=O)NC(=O)CSc1cccc(C(F)(F)F)c1 | -7.88%
CC1S/C(=N/N=C/c2ccco2)N(Cc2ccc(F)cc2)C1=O (stereo not shown) | -11.3%
COc1ccc(CCN2C(=O)CC(NNc3ccc([N+](=O)[O-])cc3)C2=O)cc1OC (stereo not shown) | -52.8%
CCOC(=O)C1=C(C)NC(SCC(=O)Nc2nc(C)cs2)=C(C#N)C1c1cccs1 (stereo not shown) | 1.13%
CC1CCCN(CCOc2ccc3ccccc3c2Br)C1.O=C(O)C(=O)O (stereo not shown) | -69%
CC1=C(C(=O)OC(C)C)C(c2ccc(O)cc2)NC(=O)N1 (stereo not shown) | 15.9%
O=C(Cn1cc(C(F)(F)F)cc(Cl)c1=O)Nc1cccc(Cl)c1 | 19.1%
Cc1ccc(-c2nnc(Nc3ccc4c(c3)OCO4)c3ccccc23)cc1S(=O)(=O)NCCO | -27%
O=C(c1ccccc1NS(=O)(=O)c1ccc(Br)s1)N1CCOCC1 | -1.04%
CCn1cc(C(=O)N2CCN(c3ccccc3OC)CC2)c2cc(OC)c(OC)cc2c1=O | -1.96%
CCCOc1c(Cl)cc(C(=O)Nc2ccc3c(c2)OCO3)cc1OCC | 10.1%
Cc1c(/C=N\NC(=O)C2(C)CC2(Cl)Cl)cnn1C (stereo not shown) | 5.55%
COc1ccccc1C(=O)NCCC(=O)NCc1cccnc1 | 8.13%

Compound | hERG current change (%, negative = inhibition) at 10uM
CC(C)CNc1c2c(nc3ccccc13)CCC2.Cl | -69.2%
COc1ccc([N+](=O)[O-])cc1NC(=O)Cc1noc2ccc(C)cc12 | 12.9%
CN(C)c1ccc(C(CC(=O)c2ccccc2)C2CCCCC2=O)cc1 (stereo not shown) | -5.11%
Cc1c(OCC(=O)N2C[C@H]3C[C@@H](C2)c2cccc(=O)n2C3)ccc2c3c(c(=O)oc12)CCC3 | 1.16%
C=CCNC(=O)c1sc(-c2ccccc2)nc1C | -4.26%
CCOc1ccc(S(=O)(=O)N2CCN(C(=O)C3CCC3)CC2)cc1 | -5.04%
C/C(=N\NC(=O)c1ccc(CSc2cccc3cccnc23)cc1)C1CCCCC1 | -9.08%
CCOC(=O)/C(CCCN(CC)CC)=N\O.CI | 12.9%
COc1ccc(-n2nc(C(=O)N3CCCCC3)c(C)c(C#N)c2=O)cc1 | 22.5%
Cc1ccc(-n2nnc3c(=O)n(CC(=O)c4ccccc4)cnc32)cc1 | -4.76%
COc1ccc(CCNC(=O)COC(=O)c2cc(=O)c3ccccc3o2)cc1 | -1.09%
COc1ccc(C(C)(C)C)cc1NC(=O)COC(=O)c1nc2nccc(C)n2n1 | 3.17%
COc1ccc(NC(=S)N2CCCC(c3nc4ccc(C)cc4[nH]3)C2)cc1 (stereo not shown) | -10.5%
C=CCn1c(C)c(C(C)=O)c(N2CCOCC2)nc1=S | -5.62%
O=S(=O)(NCC(c1cccnc1)N1CCN(Cc2ccccc2)CC1)c1cc(F)ccc1F (stereo not shown) | -69.1%
CSCCC(NC(=O)c1ccccc1)C(=O)N1CC=C(c2ccccc2)CC1 (stereo not shown) | 6.4%
COc1ccc(Nc2nnc(SCC(=O)/C=C3/N(C)c4ccccc4C3(C)C)s2)cc1 | -2.46%
CC(=O)c1c(C)[nH]c(C(=O)Nc2ccc(C)cc2Br)c1C | 15.8%
CCC(CC)N1CCN(CC2CC=CCC2)CC1.O=C(O)C(=O)O (stereo not shown) | 3.64%
COc1cc(C2C3C(=O)N(c4ccccc4)C(=O)C3ON2c2ccccc2)cc(OC)c1OC (stereo not shown) | -1.79%
O=C(N/N=C/c1ccc(Br)o1)/C(=C/c1ccc([N+](=O)[O-])cc1)NC(=O)c1ccccc1 | -60.1%
Cc1cnccc1CN(C)C(=O)C1CCC(=O)N(Cc2ccccc2F)C1 (stereo not shown) | -35.7%

Compound | hERG current change (%, negative = inhibition) at 10uM
CCCN1CCN(C(=S)Nc2ccc(SC(F)F)cc2)CC1 | -30.3%
COC(=O)[C@]1(C)CCC[C@@]2(C)C3CC[C@@]4(C)C[C@]3(CC[C@H]12)C[C@H]4O (stereo partly shown) | -0.194%
CCOc1ccc(NC(=O)CSc2nnnn2CC(=O)O)cc1 | 10.6%
C(=N\Nc1ccccn1)/c1c[nH]c2ccccc12 | -9.5%
O=C(c1ccco1)N(CCC(c1ccccc1)c1ccco1)Cc1ccco1 (stereo not shown) | -17.8%
Cc1ccc(C(=O)Nc2cccc(C(O)c3ccccc3)c2)cc1 (stereo not shown) | 2.87%
O=C(O)c1ccc(/C=N/Nc2ccc(F)cc2F)cc1 | 14.6%
Cc1ccc(N2C(=O)NC(NS(=O)(=O)c3ccccc3)(C(F)(F)F)C2=O)cc1 (stereo not shown) | 9.26%
Cc1ccc(S(=O)(=O)N2CCCc3ccccc32)cc1C | 0.165%
COc1cccc(/C=C/C(=O)OCC(=O)NC(=O)NC2CCCCC2)c1 | -2.47%
CN1C(=O)Cc2cc(S(=O)(=O)N3CCN(c4ccccc4F)CC3)ccc21 | -2.74%
Cn1c(O)c(C=NCCc2c[nH]c3ccccc23)c(=O)n(C)c1=O | -0.616%
CC(C)NC(=S)Nc1cccc2cnccc12 | -10.7%
CC(C)(C)CC(=O)Nc1ccc(Nc2ccccc2)cc1 | 3.84%
CC(=NCCN1CCCCC1)c1c(O)n(-c2ccc(Cl)cc2)c(=O)[nH]c1=O | -0.221%
CCOCCCNC(=O)C1CCC(CNS(=O)(=O)c2ccc(OC)cc2)CC1 (stereo not shown) | 6.01%
COc1cc(N)c(Cl)cc1C(=O)NC1CN2CCC1CC2.Cl.O (stereo not shown) | -11.1%
O=C(NCc1ccccc1F)C1CCCN1S(=O)(=O)c1ccc(F)cc1 (stereo not shown) | 19%
CCOc1cc(/C=C2\N=C(C)OC2=O)cc(Br)c1OCCc1ccccc1 | 16.7%
CC(=O)c1cccc(N=Cc2c(O)c3ccccc3oc2=O)c1 | 9.35%
c1nnc(NC2=NCCCCC2)s1 | 12.2%
COC(=O)c1ccc(Cn2nnc3c(=O)[nH]c(C4CCCN(S(=O)(=O)c5ccc(C)cc5)C4)nc32)cc1 (stereo not shown) | 21.3%

Compound | hERG current change (%, negative = inhibition) at 10uM
COc1ccc(C(=O)c2c3ccc([N+](=O)[O-])cc3[n+]([O-])n2CCC[NH3+])cc1.[Cl-] | -47.4%
Cc1cccc(N2CCN(C(=O)c3c(C)nn(Cc4ccccc4Cl)c3C)CC2)c1C | -0.851%
CCn1c(-c2ccccc2Cl)nn(CC(=O)NCCc2ccccc2)c1=S | 2.03%
O=C(c1ccc([N+](=O)[O-])cc1)N(c1ccccn1)c1ccccn1 | 10.9%
CCCCn1c(=O)c(C=Nc2ccc(Cl)cc2)c(O)n(Cc2ccco2)c1=O | -12.7%
COc1ccc(/C=C/CN2CCCC(C(=O)c3ccc(OC)c(F)c3)C2)cc1 (stereo not shown) | -94.5%
COc1cccc(C(=O)N2CCN(Cc3nc(CC4CC4)no3)CC2)c1 | -5.73%
O=C(Nc1ccc(Cl)cn1)c1ccc2[nH]c(=O)c(=O)[nH]c2c1 | 16.9%
CC(=O)N(C)c1ccc(NC(=S)Nc2ccccc2)cc1 | 13.8%
Cc1nc2sc(C(=O)Nc3ccccc3Cc3ccccc3)c(C)c2c(=O)[nH]1 | 8.96%
COc1cc(O)c(CCC(=O)c2cc(OC)c(OC)c(OC)c2)c(OC)c1 | 1.95%
CCN(CC)c1ccc2c(Cl)c(Br)c(=O)oc2c1 | 7.17%
CCCn1c(SCC(=O)N2c3ccccc3Sc3ccccc32)nc2ccccc21 | 22.5%
O=C1CC(c2ccncc2)c2cc3c(cc2N1)OCCO3 (stereo not shown) | 2.23%
O=C(NCC1CCCO1)c1ccc(/C=N/O)nc1 (stereo not shown) | 5.34%
O=C(NC12CC3CC(CC(C3)C1)C2)c1ccc([N+](=O)[O-])o1 | 16.9%
O=C(NN=C1C2CC3CC(C2)CC1C3)c1cccc(S(=O)(=O)N2CCOCC2)c1 | 0.586%
COc1ccc(-c2cc(C(F)(F)F)nc(N)n2)cc1 | 11.9%
COc1cccc(NC(=O)CSCc2cc(=O)n3nc(C4CC4)sc3n2)c1 | 18.4%
S=c1[nH]nc(-c2ccc(Cl)cc2Cl)n1-c1ccc(Cl)cc1 | 18.6%
COc1cccc(-c2nc(NCc3ccccc3)c3ccccc3n2)c1O | 14.6%
CC(C)C(=O)N1N=C(c2ccc(NS(C)(=O)=O)cc2)CC1c1cccs1 (stereo not shown) | -68.7%
